Experimental data as given in publication PMC6919601, “Identification of Plasmodium dipeptidyl aminopeptidase allosteric inhibitors by high throughput screening” (PLoS ONE, 2019).
Out of some 110,000 compounds screened, about 230 (0.21%) showed an effect of 50% or more. The list shows a part of the results.

Target: DPAP1 (Plasmodium falciparum, UniProt Q8IIJ9)
Assay: primary screen, percent inhibition; read by cleavage of a fluorogenic dipeptide substrate; higher = more effect of the substance
Design: species or system P. falciparum D10 trophozoite lysates; single well
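Note: 30 min substrate incubation versus DMSO and 10 µM JCP410 controls.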

Sequence of DPAP1 (Q8IIJ9 whole entry, looked up): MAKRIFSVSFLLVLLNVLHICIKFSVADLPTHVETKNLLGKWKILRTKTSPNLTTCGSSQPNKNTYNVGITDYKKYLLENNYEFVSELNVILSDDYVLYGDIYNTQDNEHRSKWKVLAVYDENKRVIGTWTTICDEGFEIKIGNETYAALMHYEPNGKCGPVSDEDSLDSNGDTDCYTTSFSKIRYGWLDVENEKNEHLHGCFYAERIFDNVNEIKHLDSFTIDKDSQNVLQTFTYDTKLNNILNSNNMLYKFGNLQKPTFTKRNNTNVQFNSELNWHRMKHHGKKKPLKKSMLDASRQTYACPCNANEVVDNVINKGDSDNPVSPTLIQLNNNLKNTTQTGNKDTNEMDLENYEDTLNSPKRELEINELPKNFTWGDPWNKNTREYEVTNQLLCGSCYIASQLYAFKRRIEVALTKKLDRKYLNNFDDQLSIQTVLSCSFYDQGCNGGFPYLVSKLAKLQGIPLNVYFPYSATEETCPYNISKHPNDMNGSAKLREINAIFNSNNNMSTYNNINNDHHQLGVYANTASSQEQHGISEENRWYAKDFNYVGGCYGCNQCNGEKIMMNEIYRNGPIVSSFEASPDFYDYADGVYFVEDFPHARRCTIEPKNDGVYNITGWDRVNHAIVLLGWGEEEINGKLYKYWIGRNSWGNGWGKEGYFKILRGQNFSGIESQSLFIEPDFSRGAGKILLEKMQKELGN

| SMILES | % Inhibition @ 10 uM [%] |
| --- | --- |
| CCCCC1(O)CC(C)(C)N(O)C(C)(C)C1 | 2.45 |
| COc1ccc(C(=O)NCc2ccco2)cc1S(=O)(=O)N1CCOCC1 | -6.48 |
| Nc1cn(C2OC(CO)C(O)C(O)C2O)c(=O)[nH]c1=O (stereo not shown) | -1.37 |
| COc1cccc(C(=O)Nc2ccncc2)c1OC | 1.61 |
| CCCOc1ccc(C2C3=C(O)CC(C)(C)CC3=NC(C)=C2C(=O)Nc2ccccc2OC)cc1 (stereo not shown) | -0.864 |
| OC(Cc1nc2ccccc2[nH]1)(c1ccccc1)c1ccccc1 | -5.82 |
| COc1ccc(C2C(C(=O)c3ccc(Cl)cc3)=C(O)C(=O)N2c2nc(C)c(C)s2)cc1OC (stereo not shown) | -9.13 |
| O=C1C2C(c3ccccc3)C=CC(c3ccccc3)C2C(=O)N1C1CCCCC1 (stereo not shown) | -7.18 |
| N=c1sccn1CC(=O)c1cccs1 | -0.836 |
| Fc1ccc(N2CCN(Cc3c(Cl)cccc3Cl)CC2)cc1 | -5.42 |
| COc1ccc(C2CC(O)=C/C(=N/c3ccccc3N)C2)cc1OC (stereo not shown) | -2.68 |
| CC(C)CCNC(=O)C1CCC(=O)N1CCc1ccccc1 (stereo not shown) | -1.79 |
| COc1ccc(NC(=O)c2ccc(-c3cccc(Cl)c3)o2)cc1OC | -1.98 |
| COc1cc(CNCCc2ccccc2)ccc1O | -4.12 |
| CC(C)NC(=O)CN(C)S(=O)(=O)c1ccc(F)cc1 | 0.815 |
| O=C1CC(N2CCSCC2)C(=O)N1c1cccc(Br)c1 (stereo not shown) | -2.16 |
| CC(=O)NCCCC[C@H](NC(=O)[C@H](CC(C)C)NC(=O)c1ccc(-c2cnc(N=C(N)N)s2)cc1)C(=O)O | -3.04 |
| C=CCN(CC=C)C(=O)Nc1cccc(Cl)c1 | -5.41 |
| N#C/C(=C\c1ccccc1[N+](=O)[O-])c1nc(-c2ccccc2)cs1 | -5.65 |
| COc1cccc(-c2cc(C(=O)O)c3ccccc3n2)c1 | -0.865 |
| CCOC(=O)N1CCC2(CC1)OC(=O)C(C)=C2C(=O)NCCN1CCOCC1 | -5.25 |
| N#Cc1cccc(NC(=O)COc2ccc3ccccc3c2Br)c1 | 2.67 |

| SMILES | % Inhibition @ 10 uM [%] |
| --- | --- |
| CS(=O)(=O)c1ccc2nc(NC(=O)c3ccc4c(c3)OCO4)sc2c1 | 2.38 |
| N#Cc1c(NC(=O)C2C3C=CC(C3)C2C(=O)O)sc2c1CCCCC2 (stereo not shown) | -6.35 |
| Cc1nc(S(=O)(=O)NCCc2ccccc2)c(C#N)c(C)c1Cl | 4.19 |
| O=S(=O)(CCOc1ccccc1)N1CCOCC1 | -6.83 |
| CC(C)(C)NCCCOc1ccc(Br)cc1 | -3.74 |
| c1nc(N2CCNCC2)c2sc3nc(N4CCOCC4)c4c(c3c2n1)CCCC4 | 1.31 |
| c1ccc(CN2CCN(Cc3ccc(-c4ccccc4)cc3)CC2)cc1 | 3 |
| CCOc1cc(CN2CCN(c3ccccc3OC)CC2)ccc1OC | 3.16 |
| COc1ccccc1CNCc1c(C(=O)O)[nH]c2ccccc12 | -1.44 |
| COc1ccc(C(=O)OCCN2CCOCC2)cc1OC | 0.84 |
| O=C(O)c1ccc2oc(=O)c(S(=O)(=O)c3ccc(F)cc3)cc2c1 | 0.44 |
| Cc1ccc(-c2cc(C(F)F)n3ncc(C(=O)NCCCN4CCCC4=O)c3n2)cc1 | 4.08 |
| CC(NC(=O)c1ccccc1Cl)c1cc2c(cc1Cl)OCCO2 (stereo not shown) | -6.94 |
| CC1CCN(C2=CC(=O)OC23CCCCC3)CC1 | 0.0539 |
| CCn1cnc2c(=O)oc3ccc(S(=O)(=O)NCc4ccc5c(c4)OCO5)cc3c21 | 1.49 |
| Cc1c(C(=O)OC(C)C)sc2ncn(CC(=O)O)c(=O)c12 | 0.561 |
| O=[N+]([O-])c1ccc(CN2CCN(c3ccccc3Cl)CC2)s1 | -6.47 |
| Cc1ccc(-c2nnc(N3CCN(C(=O)c4ccco4)CC3)c3ccccc23)cc1 | 4.85 |
| O=C(O)/C=C/c1cccc(NS(=O)(=O)/C=C/c2ccccc2)c1 | -0.712 |
| CCC(C(=O)NC1CCCC(C)C1C)n1nc(C)n2c(cc3sccc32)c1=O (stereo not shown) | -1.58 |
| Cc1ccc(SCCC(=O)NC2CCCCCC2)cc1 | -2.74 |
| Cc1cccc(NC(=O)c2ccccc2NC(=O)C2CC=CCC2C(=O)O)c1 (stereo not shown) | 2.48 |

| SMILES | % Inhibition @ 10 uM [%] |
| --- | --- |
| c1cncc(-c2nc3cc(Oc4ccc5[nH]c(-c6cccnc6)nc5c4)ccc3[nH]2)c1 | -0.828 |
| CCN(CC)CCCNCc1c(Cl)cccc1Cl | 5.23 |
| O=C(Nc1ccc(C(F)(F)F)cc1)C1CCN(S(=O)(=O)c2ccc(F)cc2)CC1 | 6.43 |
| O=C(O)c1cc(N2C(=O)c3cccc4cc(Br)cc(c34)C2=O)ccc1O | 13.5 |
| O=C(/C=C/c1ccco1)c1ccc(Cl)cc1 | 10.4 |
| Cc1c(NC(=O)c2ccco2)c(=O)n(-c2ccccc2)n1C | 5.03 |
| Cn1nc(C(=O)N2CCCN(Cc3ccccc3F)C2)c2c1-c1ccccc1SC2 | -5.37 |
| CCC(C)N1C(=O)S/C(=C/c2cc(Br)cc(OC)c2O)C1=O (stereo not shown) | 3.5 |
| OC1CCCN(Cc2ccc3c(c2)OCO3)C1 (stereo not shown) | -0.969 |
| Fc1nc(N2CCOCC2)c(F)c(Oc2ccc(Br)cc2)c1F | 1.84 |
| Cc1cccc(C)c1NC(=O)c1cc2c(=O)n3cccc(C)c3nc2n1C | 0.331 |
| CC(C)C[C@H](NC(=O)OCc1ccccc1-c1ccccc1)C(=O)NCC#N | -4.72 |
| CCOc1cc(C(=O)NCc2nnc(S)n2-c2cccc(C)c2)cc(OCC)c1OCC | 1.39 |
| COc1ccccc1/C=C/CNc1ccc(F)cc1 | 18 |
| COc1ccc(C2CC(=O)N3CN(Cc4cccnc4)CSC3=C2C#N)cc1 (stereo not shown) | 46.3 |
| CCC(C)NC(=O)CN(c1ccc(OC)c(Cl)c1)S(=O)(=O)c1ccc(C)cc1 (stereo not shown) | 1.05 |
| Cc1ccccc1-n1nc2c(c1NC(=O)COc1ccc(Cl)cc1)CS(=O)(=O)C2 | -3.83 |
| COC(=O)C1=CN(Cc2ccc(Cl)cc2)C=C(C(=O)OC)C1c1cc(OC)c(OC)cc1OC | 0.219 |
| O=C1CC(c2ccc(F)cc2)c2c(n3c4ccccc4nc3n(Cc3ccc(F)cc3)c2=O)N1 (stereo not shown) | -5.72 |
| C(=C/c1nccc2c1[nH]c1ccccc12)/c1ccc2c(c1)OCO2 | -11.5 |
